In article PMC5426369 one finds binding data, which are given here for four molecules.

By UniProt entry, the sequences of proteins in these tests, tags left out.
UniProt P11275: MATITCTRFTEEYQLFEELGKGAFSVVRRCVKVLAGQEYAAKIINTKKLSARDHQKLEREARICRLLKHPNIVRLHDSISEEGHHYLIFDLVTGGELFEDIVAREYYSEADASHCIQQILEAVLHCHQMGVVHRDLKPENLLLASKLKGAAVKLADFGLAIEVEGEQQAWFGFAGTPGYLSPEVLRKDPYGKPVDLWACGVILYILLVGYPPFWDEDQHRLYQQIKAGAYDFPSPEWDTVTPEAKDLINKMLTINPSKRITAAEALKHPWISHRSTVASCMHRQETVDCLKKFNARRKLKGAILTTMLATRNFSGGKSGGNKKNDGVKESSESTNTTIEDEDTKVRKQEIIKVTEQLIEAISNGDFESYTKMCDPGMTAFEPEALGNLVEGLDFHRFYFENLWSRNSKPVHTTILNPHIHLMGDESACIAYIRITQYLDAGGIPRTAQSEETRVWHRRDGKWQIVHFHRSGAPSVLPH
UniProt P08413: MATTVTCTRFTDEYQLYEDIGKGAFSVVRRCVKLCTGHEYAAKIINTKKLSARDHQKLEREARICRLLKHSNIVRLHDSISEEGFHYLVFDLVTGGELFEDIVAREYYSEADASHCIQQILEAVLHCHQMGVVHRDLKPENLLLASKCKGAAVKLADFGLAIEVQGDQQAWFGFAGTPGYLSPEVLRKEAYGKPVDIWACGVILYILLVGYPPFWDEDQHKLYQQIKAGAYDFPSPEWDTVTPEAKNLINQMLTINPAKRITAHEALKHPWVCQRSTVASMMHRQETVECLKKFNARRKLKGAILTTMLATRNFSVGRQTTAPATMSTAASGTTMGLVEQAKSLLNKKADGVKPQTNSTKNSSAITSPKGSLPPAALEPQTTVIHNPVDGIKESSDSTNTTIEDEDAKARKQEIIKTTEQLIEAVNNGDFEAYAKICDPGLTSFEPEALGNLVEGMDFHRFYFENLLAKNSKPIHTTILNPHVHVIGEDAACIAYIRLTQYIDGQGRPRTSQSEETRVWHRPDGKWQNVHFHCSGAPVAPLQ

The target in test [1] is calcium/calmodulin-dependent protein kinase II-alpha (CaMKIIα), endogenous (rat (endogenous in dentate gyrus)) (UniProt P11275). In words: co-IP; native proteins from rat dentate gyrus lysate (HFS-treated, contralateral control or naive); antibody on protein G-agarose or protein A/G magnetic beads, 4°C, 20 mM Hepes pH 7.4, 137 mM NaCl, 1 mM EDTA, 0.5% NP-40, 20 mM NEM; immunoblot. In general terms: A western blot detects proteins with antibodies after separation by electrophoresis.

The target in test [2] is T1, Activity-regulated cytoskeleton-associated protein (Arc), unmodified 50 kDa, endogenous (rat (endogenous in dentate gyrus)) (UniProt Q63053).
T1 sequence: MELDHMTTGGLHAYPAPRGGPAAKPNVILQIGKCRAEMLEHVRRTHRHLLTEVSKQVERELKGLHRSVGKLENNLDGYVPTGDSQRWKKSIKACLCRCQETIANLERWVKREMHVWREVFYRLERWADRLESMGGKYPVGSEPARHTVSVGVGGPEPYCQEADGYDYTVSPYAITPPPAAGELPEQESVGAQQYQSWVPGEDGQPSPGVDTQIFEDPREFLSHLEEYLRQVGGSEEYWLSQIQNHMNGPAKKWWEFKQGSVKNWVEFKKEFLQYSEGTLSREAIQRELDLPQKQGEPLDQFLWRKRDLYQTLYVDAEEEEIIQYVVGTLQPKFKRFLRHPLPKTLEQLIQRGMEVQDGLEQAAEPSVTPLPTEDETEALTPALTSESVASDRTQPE
The test can be described thus: co-IP; native proteins from pooled rat dentate gyrus cytoskeletal fractions (subcellular fractionation kit; HFS-treated and control); immunoblot.

Test [3] addresses calcium/calmodulin-dependent protein kinase II-beta (CaMKIIβ), endogenous (rat (endogenous in dentate gyrus)), P08413. In words: co-IP; native proteins from rat dentate gyrus lysate (HFS-treated, contralateral control or naive); antibody on protein G-agarose or protein A/G magnetic beads, 4°C, 20 mM Hepes pH 7.4, 137 mM NaCl, 1 mM EDTA, 0.5% NP-40, 20 mM NEM; immunoblot. The note with it: remark: other sources report otherwise.

For test [4], the target named is T2, dynamin 2, endogenous (rat (endogenous in dentate gyrus)) (UniProt P39052).
T2 sequence: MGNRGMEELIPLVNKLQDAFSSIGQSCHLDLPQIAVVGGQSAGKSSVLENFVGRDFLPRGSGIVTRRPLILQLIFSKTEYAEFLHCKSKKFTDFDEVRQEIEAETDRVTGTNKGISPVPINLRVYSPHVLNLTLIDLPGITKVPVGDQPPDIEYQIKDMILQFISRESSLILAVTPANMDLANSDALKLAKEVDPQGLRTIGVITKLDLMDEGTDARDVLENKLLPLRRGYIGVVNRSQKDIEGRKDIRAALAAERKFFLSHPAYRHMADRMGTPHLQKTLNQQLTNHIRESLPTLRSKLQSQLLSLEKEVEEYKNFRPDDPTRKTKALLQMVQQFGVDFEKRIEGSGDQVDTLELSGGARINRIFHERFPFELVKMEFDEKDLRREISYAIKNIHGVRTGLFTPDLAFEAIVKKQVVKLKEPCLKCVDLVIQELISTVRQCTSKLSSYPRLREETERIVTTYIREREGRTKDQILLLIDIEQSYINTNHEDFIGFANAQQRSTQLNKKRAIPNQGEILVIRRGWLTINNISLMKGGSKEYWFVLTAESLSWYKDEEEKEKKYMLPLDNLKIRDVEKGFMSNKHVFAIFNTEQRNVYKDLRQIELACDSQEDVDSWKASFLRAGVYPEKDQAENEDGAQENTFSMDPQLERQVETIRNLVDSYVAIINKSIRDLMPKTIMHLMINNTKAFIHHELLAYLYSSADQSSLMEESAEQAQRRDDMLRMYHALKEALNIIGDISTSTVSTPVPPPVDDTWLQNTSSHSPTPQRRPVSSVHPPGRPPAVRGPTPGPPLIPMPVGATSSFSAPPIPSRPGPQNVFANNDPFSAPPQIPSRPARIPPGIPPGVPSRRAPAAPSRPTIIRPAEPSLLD
Described as above.

Test [5] deals with calcium/calmodulin-dependent protein kinase II-beta (CaMKIIβ), endogenous (rat (endogenous in dentate gyrus)) (UniProt P08413). The test is described as above.
The target in test [6] is T3, drebrin A, endogenous (rat (endogenous in dentate gyrus)) (UniProt Q07266).
T3 sequence: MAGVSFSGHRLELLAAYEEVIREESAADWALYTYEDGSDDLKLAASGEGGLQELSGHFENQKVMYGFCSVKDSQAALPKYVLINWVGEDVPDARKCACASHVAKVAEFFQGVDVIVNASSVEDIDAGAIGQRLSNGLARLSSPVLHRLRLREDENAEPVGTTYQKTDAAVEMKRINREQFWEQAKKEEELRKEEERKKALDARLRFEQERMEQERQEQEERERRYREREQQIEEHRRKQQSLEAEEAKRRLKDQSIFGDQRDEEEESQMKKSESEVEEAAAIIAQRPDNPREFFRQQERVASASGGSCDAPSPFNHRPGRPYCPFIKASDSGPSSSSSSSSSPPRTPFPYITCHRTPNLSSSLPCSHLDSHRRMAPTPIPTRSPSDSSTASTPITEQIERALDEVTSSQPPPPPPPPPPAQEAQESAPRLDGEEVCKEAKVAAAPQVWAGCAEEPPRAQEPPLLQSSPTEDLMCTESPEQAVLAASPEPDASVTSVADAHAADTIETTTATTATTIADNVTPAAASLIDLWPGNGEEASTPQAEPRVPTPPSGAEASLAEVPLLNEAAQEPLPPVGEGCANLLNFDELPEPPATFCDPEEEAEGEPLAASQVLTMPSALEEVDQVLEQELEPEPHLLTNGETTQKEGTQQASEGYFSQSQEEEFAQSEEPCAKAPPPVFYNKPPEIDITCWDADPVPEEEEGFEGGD
Described as above.

For test [7], the target named is T3, drebrin A, endogenous (rat (endogenous in dentate gyrus)). In words: co-IP; native proteins from pooled rat dentate gyrus cytoskeletal fractions (subcellular fractionation kit; HFS-treated and control); immunoblot.
In test [8] the target is T1, Activity-regulated cytoskeleton-associated protein (Arc), unmodified 50 kDa, endogenous (rat (endogenous in dentate gyrus)). In words: co-IP; native proteins from rat dentate gyrus lysate (HFS-treated, contralateral control or naive); antibody on protein G-agarose or protein A/G magnetic beads, 4°C, 20 mM Hepes pH 7.4, 137 mM NaCl, 1 mM EDTA, 0.5% NP-40, 20 mM NEM; immunoblot.

Results are given in words; binding and its absence hold for the method and conditions named. In cells and extracts the contact can be indirect. Some binding calls cover weakened binding; strength is not graded here.

B1: drebrin A, endogenous (protein, UniProt Q07266 1-707)
chain: T3 sequence
Regarding B1, the results for the binding entry in test [1] and in test [2] were “no binding” and “binds”, respectively.

B2: drebrin A, endogenous, Q07266 1-707 (protein)
chain: T3 sequence
For the molecule B2, in test [3], the binding entry is recorded as “no binding”.

B3: Activity-regulated cytoskeleton-associated protein (Arc), unmodified 50 kDa, endogenous (protein, UniProt Q63053 1-396)
chain: T1 sequence
For B3, the binding entry in test [4], in test [5], in test [6], in test [1] and in test [7] was “binds” throughout.

B4: dynamin 2, endogenous (protein, UniProt P39052 1-870)
chain: T2 sequence
With B4, the binding entry in test [8] was “binds”.
